Results reported in PubChem BioAssay AID1347417 (National Center for Advancing Translational Sciences (NCATS), 2020).
The campaign covered roughly 120,000 compounds. About 5,300 (4.4%) were called active. Inconclusive means that the source gave no clear call. Such entries were picked first, then a sample of the others. Calls come from the whole dose curve; as a rule, active = well fitted inhibition curve with a large enough effect; inconclusive = small, poorly fitted or top-dose-only effect; inactive = no such curve, though single readings can be large or run the other way. Where the call is inconclusive, the potency comes from a doubtful curve fit.

Assay: qHTS Primary assay for Inhibitors of Plasmodium falciparum Dd2 growth in vitro; note: nearly all actives have a fitted effect of over 65% in size
Details: P. falciparum Dd2 growth, SYBR Green, 72 h; series mostly up to 28.9 µM
Method in brief: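 Readout: SYBR Green fluorescence, 485 nm excitation, 535 nm emission, after ~16 h lysis at 37C. Before that, Dd2-infected red cells (2.5% hematocrit) grew 72 h with compound, 29 uM top final concentration.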
Potency is the fitted concentration of half-maximal effect; tags give direction and shape of the fitted curve.

Compound | Potency
CNC(=O)[C@@H](c1ccc(Cl)cc1)N1CCC[C@H]1C(=O)N1CC[C@@H](O)C1 | inconclusive: 0.282 µM [inhibitor, full curve, poor fit]
COc1ccc(C(=O)N2CCCC(Cc3ncc(C)n3Cc3ccccc3)C2)c(OC)c1 (stereo not drawn) | inconclusive: 0.794 µM [inhibitor, full curve, poor fit]
COc1cccc(CN2CCCCC23Cc2ccccc2CNC3=O)n1 (stereo not drawn) | inconclusive: 6.31 µM [inhibitor, partial curve, poor fit]
O=C(c1ccc(C(F)(F)F)cc1)N1CCCC(c2nn(-c3ccc(F)cc3)c(=O)[nH]2)C1 (stereo not drawn) | inactive
CCCN1CCC2(Cc3ccccc3CN(C(=O)c3ccccc3)C2)C1 (stereo not drawn) | inconclusive: 10 µM [inhibitor, partial curve]
COCc1noc([C@@H]2CN(Cc3ccncc3F)C[C@H]2COC)n1 | inactive
CN(CCNC(=O)C1CCCN(c2cnn(Cc3ccccc3)c(=O)c2)C1)C1CCCCC1 (stereo not drawn) | inconclusive: 15.8 µM [inhibitor, single point]
CN(C)c1ccc(CNC(=O)c2cnc3sc(N4CCCCCC4)nn3c2=O)cc1 | inconclusive: 3.98 µM [inhibitor, single point]
O=C(Cn1cccc1-c1nc(-c2ccc(F)cc2)no1)Nc1cc(F)cc(F)c1 | inactive
CCOc1ccc2c(n1)CCN(C(=O)C1(c3ccc(OC)cc3)CC1)C2 | inconclusive: 8.91 µM [inhibitor, single point]
CCOc1ccc(OCC)c(NC(=O)CCc2nc3cccnc3n2Cc2cccs2)c1 | inconclusive: 8.91 µM [inhibitor, partial curve]
COC(=O)C1=C(C)N=C2SC=C(CC(=O)NCc3ccco3)N2C1c1cccc(F)c1 (stereo not drawn) | inactive
CC1(c2cccnc2)N(CCOc2ccccc2)C(=O)OC12CCN(C(=O)c1cccc(Cl)c1)CC2 (stereo not drawn) | inconclusive: 2.51 µM [inhibitor, partial curve, poor fit]
CCC1CCCCN1C(=O)CSc1nc(-c2ccc(OC)c(OC)c2)cc(C(F)(F)F)n1 (stereo not drawn) | inactive
Cc1oc2c(c1C(=O)NCCCN1CCCC1=O)CN(Cc1cccc(F)c1)CC2 | inconclusive: 12.6 µM [inhibitor, partial curve, poor fit]
CC(C)N1CCN(C(=O)c2cc3c(=O)[nH]c(-c4ccccc4)cn3n2)CC1 | inconclusive: 7.94 µM [inhibitor, partial curve]
O=C(Nc1ccc2c(c1)OCCO2)N1CCCC1c1nc(CCOCC2CCCC2)no1 (stereo not drawn) | inactive
Cn1cc(NC(=O)C[C@H]2NC(=O)c3ccccc3NC2=O)cn1 | inactive
